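1) Cells in 96-well plates. 2) Compound, 48 h, 5 concentrations. 3) Linear interpolation between surrounding doses. 4) Unreached endpoint = highest concentration. GI50: concentration for 50% inhibition of growth. At the TGI there is no net growth.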 Bridge positions count the residues as written; N and C are the ends. Square brackets hold non-standard residues; d marks the D form. Peptide text beside a SMILES is read from it. ξ: configuration not given here. ξThr(3R) = C[C@@H](O)C(N)C(=O)O; S5 = C=CCCC[C@](C)(N)C(=O)O
Test system: NCI-H322M lung
Test: inhibition of tumour cell growth, NCI panel, 48 h

Row | SMILES | TGI | GI50
1 | CC1=CC(O)C(C(O)(C(F)(F)F)C(F)(F)F)C(C)(C)C1 (configuration not stated) | > 10 µM | 
2 | CCOC(=O)c1c(-c2cccc(Cl)c2)c(C(=O)OC)c(C)c2sc(C=O)nc12 | 35.8 µM | 
3 | C[C@@]1(Cc2ccccc2)C(=O)N2[C@@H](CO)C(c3ccccc3)O[C@]2(C)c2ccccc21 (some centres not stated) | > 100 µM | 
4 | O=C(N/N=C(/c1nc2ccc([N+](=O)[O-])cc2[nH]c1=O)C(O)c1ccc([N+](=O)[O-])cc1)c1ccncc1 (configuration not stated) | > 100 µM | 
5 | CN=C(N)N=Nc1c(O)[nH]c2ccccc12 | > 100 µM | 
6 | CC(=O)[CH-]C(=O)c1ccccc1.CC(=O)[CH-]C(=O)c1ccccc1.CC(C)CCC[C@H](C)C1CCC2[C@@H]3CC=C4C[C@@H]([O-])CC[C@]4(C)C3CC[C@@]21C.CC(C)CCC[C@H](C)C1CCC2[C@@H]3CC=C4C[C@@H]([O-])CC[C@]4(C)C3CC[C@@]21C.Cl.[Ti+4] (some centres not stated) | > 25 µM | > 25 µM
7 | NC(N)=NS(=O)(=O)c1ccc(NNC(=O)c2cccc3c(=O)c4ccccc4[nH]c23)cc1 | 58.1 µM | 
8 | COc1ccc(NC(=O)CC(=O)NNC(Sc2ccccc2)c2cc(N=Nc3ccc(Br)cc3)ccc2O)cc1 (configuration not stated) | > 10 µM | 
9 | CCCCCCCCCCCCCCCCCCOc1ccccc1CC(=O)OCC[N+](CC)(CC)CC | 11 µM | 4.03 µM
10 | NC(=O)c1nnsc1NN=O | > 100 µM | 
11 | COc1cc(C2c3cc4c(cc3[C@@H](Nc3ccc(Oc5ccccc5)cc3)C3COC(=O)[C@H]23)OCO4)cc(OC)c1O (some centres not stated) | > 100 µM | 
12 | CCN(CC)c1ccc2cc(C(=O)NCc3ccccc3)c(=N)oc2c1 | > 100 µM | 
13 | CC1=C(C(=O)NCc2ccccc2)C(c2ccccc2C)C(C(=O)NCc2ccccc2)=C(C)N1 | 99.5 µM | 
14 | CC(c1ccccc1)[C@@H](C(=O)Nc1ccc(I)cc1F)N1C(=O)N[C@H](c2ccc(OC[C@H](O)CO)cc2)C1=O (some centres not stated) | > 25 µM | 3.19 µM
15 | COC1CC(C)([N+](=O)[O-])C(O)C(C)O1 (configuration not stated) | > 100 µM | 
16 | C[C@@H]1O[C@]2(O)[C@@H]3CCCN3S(=O)(=O)CCN2C1=O | > 100 µM | 
17 | CCCCCCCCCCSC(=O)NC | > 100 µM | 
18 | CSc1nn(C)cc2nc(C)nc1-2 | > 100 µM | 
19 | O=Cc1c(-c2ccccc2)[nH]c2ccccc2c1=O | > 100 µM | 
20 | CCOC(=O)CCC(NC(=O)c1ccc(N=Cc2nc3ccccc3nc2-c2ccccc2)cc1)C(=O)OCC (configuration not stated) | > 100 µM | 
21 | O=C(Nc1ccc(-n2ccc3c(NC(=O)c4ccccc4)nccc32)cc1)Nc1cccc(C(F)(F)F)c1 | 30.9 µM | 11.6 µM
22 | Nc1nnnc2nc[nH]c12 | > 39.3 µM | 0.544 µM
23 | CC1(C)OCN(c2ccc(S(N)(=O)=O)cc2)Cn2c1nc1ccccc12 | > 100 µM | 
24 | Cn1c2[n+](c3nc(N)[nH]c(=O)c31)C1OC(C2)C(O)C1O (configuration not stated) | > 100 µM | 

Row | SMILES | TGI | GI50
25 | Clc1ccc(CCc2ccncn2)c(Cl)c1 | > 100 µM | 
26 | C[C@@H]1OC2(O)[C@H]3CCCN3S(=O)(=O)CCN2C1=O (some centres not stated) | > 100 µM | 
27 | CCCCNC(=NCc1ccccc1)NC#N | > 100 µM | 
28 | Cc1ccc2nc(-c3ccc(NC(=O)c4ccc(N)cc4)c(S(=O)(=O)O)c3)sc2c1 | > 100 µM | 
29 | O=C(O)c1c(Cl)c(Cl)c(Cl)c(Cl)c1C(=O)Nc1ccc2cn[nH]c2c1 | > 100 µM | 
30 | COc1cc(/C=C/C(=O)N2CCC=CC2=O)cc(OC)c1OC | 15.8 µM | 4.2 µM
31 | CN1CCN(c2ccc(NC(=O)c3cncnc3Nc3ccc(OCc4cccc(F)c4)c(Cl)c3)cc2)CC1 | > 50 µM | 2.85 µM
32 | COc1cc(/C=C/c2ccc(Br)cc2)cc(OC)c1OC | 71.9 µM | 
33 | O=C1c2cccnc2C(=O)c2c1c(C(=O)NCCn1ccnc1)c1ccccn21 | 8.59 µM | 2.51 µM
34 | COC1OC(CBr)C(OC(=O)c2ccccc2)C(OS(=O)(=O)c2ccc(C)cc2)C1Br (configuration not stated) | > 100 µM | 
35 | COc1cccc(C=C2N=C(c3ccccc3)N(n3c(-c4ccccc4)nc4ccccc4c3=O)C2=O)c1 | > 100 µM | 
36 | Oc1cc(CN2CCOCCOCCOCCOCC2)c(O)cc1CN1CCOCCOCCOCCOCC1 | > 100 µM | 
37 | CCN1CCN(c2nc3ccccc3nc2C(=O)c2ccc(OC)c(OC)c2)CC1 | > 100 µM | 
38 | CN(C)Cc1ccc(C(C)(C)C)cc1-c1cc(C(C)(C)C)ccc1CN(C)C | > 100 µM | 
39 | NS(=O)(=O)c1nnc(NC(=O)c2cccc([N+](=O)[O-])c2)s1 | > 100 µM | 
40 | C/C(=N\n1c(O)c(C#N)cc(C#N)c1=O)c1ccncc1 | > 100 µM | > 100 µM
41 | NC(Cc1c[nH]c2ccc(F)cc12)C(=O)O (configuration not stated) | 2370 µM | 606 µM
42 | CCOC(=O)c1cnc2c(ccc3[nH]cccc32)c1=O | > 100 µM | 
43 | OC(Cc1ccc2ccccc2n1)(C(F)(F)Cl)C(F)(F)Cl | > 10 µM | 
44 | CN1N=C(c2ccccc2)C(C(c2ccccc2[N+](=O)[O-])C2C(=O)N(C)N=C2c2ccccc2)C1=O (configuration not stated) | > 100 µM | 
45 | CC(=O)OCC1OC(n2c(N)c(C#N)c(C)c(C#N)c2=S)C(OC(C)=O)C(OC(C)=O)C1OC(C)=O (configuration not stated) | > 100 µM | 
46 | Nc1nnc(CCC(=O)Nc2cc(Cl)ccc2Cl)n1N | > 100 µM | 
47 | CCN(CC)c1ccc(C2Nc3ccc4ccccc4c3C3=C2C(=O)CCC3)cc1 (configuration not stated) | > 100 µM | 
48 | C(=Nc1cnc2ccccc2c1)c1ccc2ccccc2n1 | > 100 µM | 

Row | SMILES | TGI | GI50
49 | COC(=O)c1nn2ccc3ccccc3c2c1C(=O)OC | > 100 µM | 
50 | O=C1NC(=S)NC(=O)C1=Cc1ccc(-c2ccccc2)cc1 | > 100 µM | 
51 | C/C(=N/NC(=O)C[n+]1ccccc1)C(CN(CC(C)C)CC(C)C)C(=O)Nc1ccc(C)cc1C (configuration not stated) | > 100 µM | 
52 | CC(C)CCC[C@@H](C)C1CCC2[C@@H]3CCC4C[C@@H](NS(C)(=O)=O)CC[C@]4(C)C3CC[C@@]21C (some centres not stated) | > 100 µM | 
53 | Cc1cc(S(=O)(=O)Nc2n[nH]c(Nc3ccc4ccccc4c3)n2)c(S)cc1Cl | > 100 µM | 
54 | COC1=C(OC)C(=O)C(Sc2ccc3ccccc3c2)=CC1=O | 17.8 µM | 
55 | Nc1ncnc2c1ncn2-c1ccc([N+](=O)[O-])cn1 | > 100 µM | 
56 | COc1cc(C(c2cccc3ccccc23)N2C(=O)CCC2C(=O)O)cc(OC)c1OC (configuration not stated) | > 100 µM | 
57 | C=C1C(=O)O[C@H]2C/C(C)=C/CC[C@]3(C)CCC[C@](C)(CC[C@@H]12)O3 | > 50 µM | 
58 | CC[C@]1(O)CC2CN(CCc3c([nH]c4ccccc34)[C@@](C(=O)OC)(c3cc4c(cc3OC)N(C=O)[C@H]3[C@@](O)(C(=O)OC)[C@H](OC(C)=O)[C@]5(CC)C=CCN6CC[C@]43[C@@H]65)C2)C1 (some centres not stated) | > 50 µM | 23.1 µM
59 | ClCc1ccc(Cn2cnc3c(Cl)ncnc32)cc1 | 22.9 µM | 14.2 µM
60 | O=c1cc(NNc2ccccc2F)[nH]c(=O)[nH]1 | > 100 µM | 
61 | COc1c(O)cc2c(c1O)C(=O)C1=C(CCCC1)C2=O | 70.8 µM | 
62 | Cc1cc(=O)n(-c2c(C)cccc2Cl)c(/C=C(\O)c2ccncc2)n1 | > 100 µM | 
63 | CCOCC(=O)N(C)c1cccc2c3c(n(C)c12)CCCCC3 | > 100 µM | 
64 | Cc1cc2ccc(OC(=O)c3ccc(N=C(N)N)cc3)cc2oc1=O | > 100 µM | 
65 | CC1C(=O)c2cc3c(cc2CCN(C)Cc2c1ccc1c2OCO1)OCO3 (configuration not stated) | > 75 µg/mL | 34.9 µg/mL
66 | CCN(CC)c1ccc(C2NC(=O)c3ccccc3N2)cc1 (configuration not stated) | > 93.4 µM | 
67 | CCOC(=O)c1nc2ccc(C(F)(F)F)cc2nc1Nc1ccc(F)cc1 | > 100 µM | 
68 | COC(=O)C1CC23C4=C(CCC41)CCC1CN4CC(C)C(CC(OC(C)=O)C12COC(C)=O)C43O (configuration not stated) | > 100 µM | 
69 | Clc1ccc(Nc2nc(Nc3ccccc3)nc(Nc3ccc(-c4cc(-c5ccc(Cl)cc5)on4)cc3)n2)cc1 | > 100 µM | 31.5 µM
70 | COc1cc(C(C[N+](=O)[O-])SC(C)=O)ccc1OCc1ccccc1 (configuration not stated) | 21.2 µM | 
71 | CCN(CC)CCC1(C2CCCCC2)CCC(=O)NC1=O (configuration not stated) | > 100 µM | 
72 | COc1cccc(/C=C/c2ccnc3ccccc23)c1OC | > 10 µM | 

Row | SMILES | TGI | GI50
73 | N#Cc1ccccc1C#C/C=C\C#Cc1ccccc1N | > 100 µM | 11.9 µM
74 | CC(C)(C)NC(=O)[C@H]1CC[C@H]2[C@@H]3CC[C@H]4NC(=O)C=C[C@]4(C)[C@H]3CC[C@]12C | > 100 µM | > 100 µM
75 | Oc1cnc2c(O)cccc2c1 | > 100 µM | 
76 | Cc1ccc(NC(=O)Nc2c(Cl)cccc2Cl)cn1 | > 100 µM | 34.7 µM
77 | CCN(CC)CC(=O)NC1c2ccccc2Oc2c(C)cccc21 (configuration not stated) | > 100 µM | 
78 | CCCCN=C(N)c1ccc(N2CCCN(c3ccc(C(N)=NCCCC)cc3)CC2)cc1 | 90.3 µM | 20 µM
79 | O=C(Cn1c(=O)oc2ccc(C(=O)c3ccc(F)cc3)cc21)c1ccccc1 | > 100 µM | 
80 | CC(=O)N[C@H](C(=O)N[C@@H](CCCNC(=N)N)C(=O)N[C@@H](CCCCN)C(=O)N[C@@H](CCCNC(=N)N)C(=O)NC(C(=O)N[C@@H](CC(C)C)C(=O)N[C@@H](CCCNC(=N)N)C(=O)N[C@@]1(C)CCC/C=C\CCC[C@@](C)(C(=O)N[C@@H](CCCNC(=N)N)C(=O)N[C@@H](CCC(=O)O)C(=O)N[C@@H](CC(C)C)C(=O)N[C@H](C(=O)N[C@@H](CCC(=O)O)C(N)=O)C(C)C)NC(=O)[C@H](CCC(N)=O)NC(=O)[C@H](CC(C)C)NC(=O)[C@H](CC(C)C)NC1=O)[C@@H](C)O)C(C)C (stereo partly drawn) (Ac-VRKR[ξThr(3R)]LR[S5]LLQ[S5]RELVE-NH2; staple (Z) 8-12) | 13.2 µM | 5.78 µM
81 | CC1(C(=O)O)C[C@](C)(C(=O)OCc2ccccc2)C[C@](C)(C(=O)OCc2ccccc2)C1 (some centres not stated) | > 100 µM | 
82 | C[C@@H](NC(=O)c1ncnc(N)c1Cl)c1ncc(C(=O)Nc2cc(C(F)(F)F)c(Cl)cn2)s1 | 72.2 µM | 21.3 µM
83 | O=C1C=CC(=Nc2cccc3c(N=C4C=CC(=O)O4)cccc23)O1 | > 100 µM | 
84 | Cc1oc(N)c(S(=O)(=O)c2cc3ccccc3n(O)c2=N)c1C | > 100 µM | 
85 | CCOC(=O)c1sc2c(c1O)c(=O)n(-c1ccccc1)c(=S)n2-c1ccccc1 | > 100 µM | 
86 | COc1cccc(/C=N/[N-]C(N)=O)c1[O-].[Ni+2].[OH3+] | 2.53 µM | 
87 | O=c1c2ccccc2nc(-c2ccccc2Cl)n1-c1nnc(C(F)(F)F)s1 | 24.5 µM | 3.54 µM
88 | COc1ccc(-c2ccccc2)c2[nH]c3c(c12)CCNC3=O | > 100 µM | 
89 | CCCCCCSCC/C(C)=N\OC | > 100 µM | 
90 | COc1ccccc1-n1c(NN)nc2ccc(Br)cc2c1=O | > 100 µM | 
91 | N=c1ccc2nc(N)nn(O)c-2c1 | > 100 µM | 
92 | Cc1nc(N)c(-c2ccccc2)s1 | > 100 µM | 
93 | CCc1[nH]c(=O)c2oc3cc4ccccc4cc3c2c1C(=O)O | > 10 µM | 
94 | Cc1cc(C)c2c(c1)N[S@@](=O)S2 | > 100 µM | 
95 | COc1cc(-c2ccc(NC(=O)SCCC(=O)O)cc2OC)ccc1NC(=O)SCCC(=O)O | > 100 µM | 
96 | COc1cc2c(cc1O)CN1CCC23C=C[C@@H](O)CC13 (some centres not stated) | > 100 µM | 
